Source: the supplement of paper PMC3334620
Whole data set: some 33,000 sequences, median “E-score (-0.5 to 0.5)” near -0.054, cut for the highest 2% near 0.39. The list shows a part of the results.

Molecular target: Ylr278c (UniProt Q05854)
Assay: PBM E-score (8-mer binding enrichment) (E-score (-0.5 to 0.5)); higher = stronger / more preferred TF binding; most listed sequences are background and not binding sites
Settings: protein concentration: 200 nM; construct: GST-DNA-binding domain
Procedure, shortened: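 The E-score, a modified Wilcoxon-Mann-Whitney statistic, was computed by the Universal PBM Analysis Suite for every ungapped eight-base word pooled with its reverse complement. Scans behind it were normalised with masliner after bound GST-tagged yeast transcription factors were detected with fluorescent anti-GST. The proteins, at about 100-200 nM, had been applied to universal all-10-mer Agilent arrays made double-stranded by primer extension.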

Going from ACGATGCC to ATCAACAA, the “PBM E-score” value rises from -0.208 to -0.0598.

Compared with CTAAAGCC, ATAAGTTG is higher in “PBM E-score” value: -0.125 for the first, -0.0479 for the second.

First: AGGAAGTG
Second: GTACGTGA
The “PBM E-score” value of the first is higher: -0.0601 for the first, -0.198 for the second.

First: ATGAAATG
Second: GGCTGAAC
The “PBM E-score” value of the first is lower: 0.0162 for the first, 0.0333 for the second.

First: GCGTCTTA
Second: CCGACACC
The “PBM E-score” value of the first is lower: -0.209 for the first, 0.348 for the second.

Going from ACAAGGGT to GGAACTCA, the “PBM E-score” value rises from -0.144 to 0.189.

Going from TCATGGAA to AGTAGCAC, the “PBM E-score” value falls from 0.067 to -0.159.

Compared with AAGGATAG, CTGACCGC is higher in “PBM E-score” value: 0.0333 for the first, 0.122 for the second.

Going from TCATAGGA to ACATGGGT, the “PBM E-score” value falls from -0.0414 to -0.0947.

Going from AGCTACGC to TAAAGAAA, the “PBM E-score” value rises from -0.137 to 0.0382.

Compared with ACGTTAGG, ACGAACGC is higher in “PBM E-score” value: -0.153 for the first, 0.0182 for the second.

Going from CGCGGATA to GGTAGTCA, the “PBM E-score” value falls from 0.32 to -0.12.

Going from ATCACCAG to ACTGAAAA, the “PBM E-score” value rises from -0.0554 to -0.0502.

Compared with CTTCTCTC, CTTAGCTA is lower in “PBM E-score” value: -0.0355 for the first, -0.178 for the second.

Compared with ACGCCTCG, GCGTTGTA is lower in “PBM E-score” value: 0.0517 for the first, -0.108 for the second.

Compared with CCATGAAA, CTAGCCAC is lower in “PBM E-score” value: -0.0325 for the first, -0.325 for the second.

First: ACGGATCT
Second: GTATTCGA
The “PBM E-score” value of the first is higher: 0.191 for the first, -0.134 for the second.

First: GTGGGCGA
Second: CCGGAGAC
The “PBM E-score” value of the first is lower: -0.196 for the first, 0.444 for the second.

First: CAGAGGAC
Second: ACTAGTAT
The “PBM E-score” value of the first is lower: -0.187 for the first, -0.0593 for the second.

Compared with ATAGAACC, ACAGACCA is lower in “PBM E-score” value: 0.013 for the first, -0.0751 for the second.

Compared with CTGCACAG, GGGAAGAC is higher in “PBM E-score” value: -0.104 for the first, -0.0678 for the second.

Going from TAGCTAAA to AGGGATGG, the “PBM E-score” value rises from -0.192 to 0.00831.

Going from AGTTTTGC to CGGACTAA, the “PBM E-score” value rises from 0.0673 to 0.423.

Going from CACACCAG to ACGACGCA, the “PBM E-score” value rises from -0.26 to -0.0635.

First: AATCCCCA
Second: GGTACTAC
The “PBM E-score” value of the first is lower: -0.0702 for the first, 0.0675 for the second.

Going from CTTCGGGC to AGTAGCCC, the “PBM E-score” value rises from 0.0457 to 0.0625.

First: CGCAGTTC
Second: CCACTAAG
The “PBM E-score” value of the first is higher: 0.0606 for the first, -0.0399 for the second.

Going from AGTGGCAT to GCGAAGCA, the “PBM E-score” value rises from -0.215 to 0.128.

Compared with AGATTTTA, TATTGGGA is higher in “PBM E-score” value: -0.148 for the first, -0.141 for the second.

First: GGAGGACC
Second: CACCGATG
The “PBM E-score” value of the first is higher: 0.13 for the first, 0.112 for the second.

First: CCCGATTA
Second: AGGACTGC
The “PBM E-score” value of the first is higher: 0.216 for the first, -0.338 for the second.

Compared with AGACTCAG, GAATTCAC is higher in “PBM E-score” value: -0.16 for the first, 0.00474 for the second.

First: GTATCCAA
Second: CACCGGAA
The “PBM E-score” value of the first is lower: -0.13 for the first, 0.427 for the second.

Compared with CCATGTGA, AAATTAGA is higher in “PBM E-score” value: -0.202 for the first, 0.0288 for the second.

First: TCCAATCA
Second: CTCGTTGA
The “PBM E-score” value of the first is higher: 8e-05 for the first, -0.273 for the second.

Compared with ATTGACAG, GAAAGTCC is higher in “PBM E-score” value: -0.0371 for the first, 0.366 for the second.

Going from ACCTTTGA to ATCCTCAA, the “PBM E-score” value rises from -0.165 to -0.0664.

First: GCAATCGA
Second: ACGTCATG
The “PBM E-score” value of the first is higher: -0.0424 for the first, -0.0961 for the second.

Going from ATTACGCG to ACCAGCGA, the “PBM E-score” value falls from 0.16 to 0.0382.

Compared with CGGGTAAC, CAGCCGCA is lower in “PBM E-score” value: 0.177 for the first, -0.211 for the second.

First: AGATAAAA
Second: AATTTCGT
The “PBM E-score” value of the first is higher: 0.0376 for the first, -0.0607 for the second.

First: AGTAACGA
Second: GACACATA
The “PBM E-score” value of the first is higher: 0.0316 for the first, -0.119 for the second.

Compared with AGGAACTC, CGCTTGAG is lower in “PBM E-score” value: 0.0174 for the first, -0.0647 for the second.

Going from AAGCGACA to AAGGTAGT, the “PBM E-score” value falls from -0.0242 to -0.0336.

First: AACGCAGC
Second: TCGCTAAA
The “PBM E-score” value of the first is higher: -0.0734 for the first, -0.123 for the second.

First: AGGTCCAT
Second: CACTCACA
The “PBM E-score” value of the first is lower: -0.0626 for the first, -0.0322 for the second.

First: ACTGTTCA
Second: CGATATCA
The “PBM E-score” value of the first is lower: -0.122 for the first, 0.0303 for the second.

First: CACCGTCC
Second: AATCGCCG
The “PBM E-score” value of the first is lower: 0.153 for the first, 0.367 for the second.

Compared with GCCGGTGA, AGGCCGCA is lower in “PBM E-score” value: 0.298 for the first, -0.0298 for the second.

Compared with ATTATATA, CCGACACA is higher in “PBM E-score” value: -0.0714 for the first, 0.178 for the second.

Going from GGACTCCA to AGAAAACG, the “PBM E-score” value falls from 0.149 to 0.00776.

Compared with CCCCATGA, ACCATCCA is lower in “PBM E-score” value: -0.194 for the first, -0.212 for the second.

First: CCATCAAG
Second: CCTGGGCA
The “PBM E-score” value of the first is higher: -0.239 for the first, -0.305 for the second.

First: ATTAAGCG
Second: CGTCCGGA
The “PBM E-score” value of the first is lower: 0.102 for the first, 0.43 for the second.

Going from ACGTCTAT to CACGTATA, the “PBM E-score” value rises from -0.17 to -0.145.

First: AGCGTTCA
Second: GGCAAACC
The “PBM E-score” value of the first is lower: -0.209 for the first, -0.0222 for the second.

Going from TAACCTCA to CATCGGAC, the “PBM E-score” value rises from -0.156 to 0.424.

Going from AAATCTGA to AGCTATGA, the “PBM E-score” value falls from -0.0879 to -0.19.

First: GCGGTGAA
Second: CATACCTC
The “PBM E-score” value of the first is higher: 0.193 for the first, -0.13 for the second.

First: ACTCATCC
Second: AAACAGCC
The “PBM E-score” value of the first is higher: -0.0863 for the first, -0.131 for the second.

Going from GCTACGAA to ATGATTGG, the “PBM E-score” value rises from -0.212 to -0.00969.

First: AGCCTGAC
Second: GCATGTAA
The “PBM E-score” value of the first is higher: -0.13 for the first, -0.134 for the second.

Compared with ATCAGGCA, ACCTCTCT is lower in “PBM E-score” value: -0.0962 for the first, -0.217 for the second.

First: GACCCACC
Second: GATACCCA
The “PBM E-score” value of the first is higher: 0.116 for the first, -0.0783 for the second.

First: AACGCTCC
Second: CAATCTGG
The “PBM E-score” value of the first is higher: -0.0586 for the first, -0.0992 for the second.

Compared with TAGATCAA, CACATTAA is lower in “PBM E-score” value: -0.225 for the first, -0.232 for the second.

Compared with AAAGTGAT, AAAGCGTA is higher in “PBM E-score” value: -0.0992 for the first, -0.0252 for the second.

First: GCACGATA
Second: ACTAAAGC
The “PBM E-score” value of the first is higher: -0.026 for the first, -0.0965 for the second.

First: ACTCTCAG
Second: ACCCTGCT
The “PBM E-score” value of the first is lower: -0.311 for the first, -0.127 for the second.

Compared with CGTCGACA, GACAAGCC is higher in “PBM E-score” value: -0.111 for the first, -0.0446 for the second.

Going from GGTCAGAA to CCGGAAAC, the “PBM E-score” value rises from -0.0755 to 0.404.

Going from GGAATTAA to CATACAAG, the “PBM E-score” value falls from 0.282 to -0.247.

Going from CCATGAGC to CTCCGAAC, the “PBM E-score” value rises from -0.197 to 0.457.

First: ATGTGTTG
Second: AGGCTTGG
The “PBM E-score” value of the first is lower: -0.0612 for the first, -0.043 for the second.

First: AACCCGCA
Second: GAGTCGAC
The “PBM E-score” value of the first is higher: 0.218 for the first, 0.00525 for the second.

Going from AGAAAGTC to ATAAATCG, the “PBM E-score” value falls from 0.121 to 0.0793.

Going from ACATAGTC to ACCTGTGC, the “PBM E-score” value falls from -0.0206 to -0.0986.

Going from GGTTGCTA to CGAGTGAG, the “PBM E-score” value rises from -0.162 to -0.0128.

First: GTCTTCGA
Second: TCTCCAGA
The “PBM E-score” value of the first is lower: -0.173 for the first, -0.0107 for the second.

Compared with AAGAGTGA, AGAACACT is higher in “PBM E-score” value: -0.167 for the first, 0.00599 for the second.

Going from GCGTCATA to CTACCAAA, the “PBM E-score” value rises from -0.0652 to 7e-05.

First: GACTGGGA
Second: ATAGCGAG
The “PBM E-score” value of the first is lower: 0.0171 for the first, 0.0889 for the second.

Going from GACAGGGC to CTCCCAAC, the “PBM E-score” value rises from -0.0701 to -0.0692.

Going from ACTCAGCA to CTCGTCGC, the “PBM E-score” value rises from -0.129 to -0.0694.

Going from AGGTCAAA to AGAGGCCA, the “PBM E-score” value rises from -0.237 to -0.067.

Going from GACTCCTC to AGTGCGAG, the “PBM E-score” value falls from -0.135 to -0.276.
